Consider 55 molecules from patent US20250066451A1 (SWEDISH ORPHAN BIOVITRUM AB PUBL, published 2025).

Positions count from the first letter of the chain named.

The labels stand for the following.
T1: human IL-1R-I (human, UniProt P14778 18-332, limits assumed)
T1 construct: bought recombinant protein; also called hIL-1R-I; hIL-1RI
T1 sequence (looked up): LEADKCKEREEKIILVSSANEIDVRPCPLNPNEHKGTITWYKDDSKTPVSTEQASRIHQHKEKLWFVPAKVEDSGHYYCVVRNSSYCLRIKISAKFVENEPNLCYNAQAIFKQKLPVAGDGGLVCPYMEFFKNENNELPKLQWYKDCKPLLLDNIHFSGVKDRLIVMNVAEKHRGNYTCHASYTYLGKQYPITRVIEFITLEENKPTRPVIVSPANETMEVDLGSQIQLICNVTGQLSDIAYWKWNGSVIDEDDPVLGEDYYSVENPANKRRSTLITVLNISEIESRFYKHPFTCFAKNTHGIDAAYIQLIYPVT

B1: Z18814 (Z-ABD) (designed binder)
chain: AQHDEALEVDAKYAKEVEEIQMEIFALPNLTRRQYTAFIRKLLDDPSQSSELLSEAKKLNDSQAPKVDYVLAEAKVLANRELDKYGVSDYYKNLINNAKTVEGVKALIDEILAALPYVPG
B2: Z18774 (Z-ABD) (designed binder)
chain: B1 chain with V17I, E19V, A26R, R33K
B3: Z18762 (Z-ABD) (designed binder)
chain: B1 chain with V17L, E19A, A26R
B4: Z18803 (Z-ABD) (designed binder)
chain: B1 chain with V17I, E19Q, A26R
B5: Z18777 (Z-ABD) (designed binder)
chain: B1 chain with V17I, E19Q, I20V, A26R
B6: Z18758 (Z-ABD) (designed binder)
chain: B1 chain with V17T, E19V, I20V, A26G, L43F
B7: Z16606 (Z-ABD) (designed binder)
chain: B1 chain with V17I, E19K, I20A, A26D, R33K, L43F
B8: Z18817 (Z-ABD) (designed binder)
chain: B1 chain with A26R, L43F
B9: Z16183 (Z-ABD) (designed binder)
chain: B1 chain with E19D, I20A, A26Y, R33K
B10: Z18771 (Z-ABD) (designed binder)
chain: B1 chain with A26R, R33K
B11: Z15934 (Z-ABD) (designed binder)
chain: B1 chain with E18T, E19V, I20A, R33K
B12: Z18819 (Z-ABD) (designed binder)
chain: B1 chain with V17T, I20V, A26G
B13: Z18786 (Z-ABD) (designed binder)
chain: B1 chain with V17L, I20V, A26R, R33K, L43F
B14: Z18784 (Z-ABD) (designed binder)
chain: B1 chain with V17T, E19A, R33K
B15: Z18804 (Z-ABD) (designed binder)
chain: B1 chain with V17L, A26R
B16: Z18811 (Z-ABD) (designed binder)
chain: B1 chain with V17L, E19T, I20V, A26H, R33K
B17: Z18766 (Z-ABD) (designed binder)
chain: B1 chain with V17T, E19Q, I20V, A26H
B18: Z18759 (Z-ABD) (designed binder)
chain: B1 chain with V17I, E19K, I20V, A26H, R33K
B19: Z15932 (Z-ABD) (designed binder)
chain: B1 chain with I20A, A26I, R33K
B20: Z18785 (Z-ABD) (designed binder)
chain: B1 chain with V17L, A26H, R33K
B21: Z18806 (Z-ABD) (designed binder)
chain: B1 chain with V17T, A26R, R33K
B22: Z18813 (Z-ABD) (designed binder)
chain: B1 chain with R33K, L43F
B23: Z18799 (Z-ABD) (designed binder)
chain: B1 chain with E19A, A26H, R33K, L43F
B24: Z16208 (Z-ABD) (designed binder)
chain: B1 chain with E19K, I20A, A26D, R33K, L43F
B25: Z16397 (Z-ABD) (designed binder)
chain: B1 chain with E19A, I20A, Q21Y, M22F, F25Y, A26E, R33K
B26: Z18763 (Z-ABD) (designed binder)
chain: B1 chain with V17I, E19A, I20V, A26G, R33K
B27: Z15840 (Z-ABD) (designed binder)
chain: B1 chain with E19V, I20A, R33K
B28: Z18757 (Z-ABD) (designed binder)
chain: B1 chain with V17I, A26R, R33K, L43F
B29: Z18821 (Z-ABD) (designed binder)
chain: B1 chain with V17T, I20V, A26K
B30: Z18807 (Z-ABD) (designed binder)
chain: B1 chain with V17L, E19I, I20V, A26S
B31: Z18754 (Z-ABD) (designed binder)
chain: B1 chain with A26R
B32: Z18783 (Z-ABD) (designed binder)
chain: B1 chain with V17T, E19V, A26R
B33: Z18805 (Z-ABD) (designed binder)
chain: B1 chain with V17I, E19A, I20V, R33K, L43F
B34: Z18798 (Z-ABD) (designed binder)
chain: B1 chain with V17T, A26Q
B35: Z16191 (Z-ABD) (designed binder)
chain: B1 chain with V17I, E19A, I20A, A26Y, R33K, L43F
B36: Z16440 (Z-ABD) (designed binder)
chain: B1 chain with E19S, I20A, Q21Y, A26H, R33K
B37: Z18760 (Z-ABD) (designed binder)
chain: B1 chain with V17T, E19A, I20V
B38: Z18810 (Z-ABD) (designed binder)
chain: B1 chain with V17T, I20V, A26G, R33K, L43F
B39: Z15975 (Z-ABD) (designed binder)
chain: B1 chain with E19T, I20A, A26V, R33K
B40: Z15945 (Z-ABD) (designed binder)
chain: B1 chain with I20A, A26S, R33K
B41: Z18756 (Z-ABD) (designed binder)
chain: B1 chain with V17I, I20V
B42: Z18770 (Z-ABD) (designed binder)
chain: B1 chain with V17T, E19R, I20V, A26S
B43: Z18782 (Z-ABD) (designed binder)
chain: B1 chain with I20V, A26E
B44: Z18776 (Z-ABD) (designed binder)
chain: B1 chain with E19A, A26H
B45: Z15876 (Z-ABD) (designed binder)
chain: B1 chain with V17I, E19A, I20A, A26G, R33K, L43F
B46: Z18769 (Z-ABD) (designed binder)
chain: B1 chain with I20V, A26H
B47: Z18820 (Z-ABD) (designed binder)
chain: B1 chain with V17L, E19A, A26R, R33K
B48: Z16603 (Z-ABD) (designed binder)
chain: B1 chain with E19A, I20A, A26Y, R33K, L43F
B49: Z18790 (Z-ABD) (designed binder)
chain: B1 chain with E19A, I20V
B50: Z18808 (Z-ABD) (designed binder)
chain: B1 chain with I20V, A26R, R33K
B51: Z15862 (Z-ABD) (designed binder)
chain: B1 chain with E19I, I20A, R33K
B52: Z16737 (Z-ABD) (designed binder)
chain: B1 chain with I20A, Q21Y, A26Q, R33K
B53: Z16062 (Z-ABD) (designed binder)
chain: B1 chain with V17I, I20A, A26Y, R33K, L43F
B54: Z18800 (Z-ABD) (designed binder)
chain: B1 chain with V17I, A26R
B55: Z18794 (Z-ABD) (designed binder)
chain: B1 chain with E19A, I20V, A26S

The target of the assay is T1, human IL-1R-I. Description: SPR screening; Z-ABD captured on anti-ABD, 100 nM hIL-1R-I injected.
As to B1, binding was put at a Kd of 2.4 nM. Take B2: binding was put at a Kd of 3 nM. As for B3, the Kd (commonly the free concentration of one partner at which half of the binding sites on the other are occupied at equilibrium, for simple one-to-one binding) worked out at 2.1 nM. In turn, B4 returned a Kd of 3.1 nM. B5 came in with an equilibrium dissociation constant (Kd) of 3.8 nM.

For B6, the dissociation constant Kd was found to be 4.8 nM. In turn, B7 showed a Kd of 9.6 nM. The molecule B8 came in with an equilibrium dissociation constant (Kd) of 3.5 nM. As for B9, the figure is 6.5 nM; as for B10, 3 nM; as for B11, 9.4 nM. B12 had a Kd of 3 nM. B13 came in with a Kd of 4.8 nM. This Kd is about 1.6-fold higher than that of the molecule before. Under B14 stands 3.7 nM. B15 gave a dissociation constant (Kd) of 3.3 nM.

B16 had a dissociation constant Kd of 4.5 nM.

Molecule B17 had a dissociation constant Kd of 3.1 nM. Under B18 stands 3.4 nM; under B19, 5.5 nM; under B20, 2.7 nM. Turning to B21, the Kd worked out at 4.1 nM.

Take B22: the Kd worked out at 2 nM.

Molecule B23 showed an equilibrium dissociation constant (Kd) of 2.6 nM. Consider B24, for which the Kd worked out at 11 nM. As for B25, the figure is 13 nM; as for B26, 5.2 nM; as for B27, 6.9 nM. B28 had a dissociation constant (Kd) of 3 nM.

For the molecule B29, binding was put at a Kd of 3.5 nM. The Kd values of the last two molecules are within 1.5-fold of each other. Take B30: binding was characterised by a dissociation constant (Kd) of 3.8 nM.

B31 had a dissociation constant Kd of 2.5 nM.

Take B32: binding was put at a Kd of 3.4 nM. For B33, binding was put at a Kd of 3.7 nM. Under B34 stands 3.2 nM; under B35, 6.3 nM. For B36, the Kd is 13 nM.

In turn, B37 displayed a dissociation constant Kd of 3 nM. Molecule B38 came in with a Kd of 3.1 nM. This Kd and that of the molecule before are within 1.5-fold of each other. B39 displayed a Kd of 8.9 nM.

For B40, binding was put at a Kd of 9.6 nM. The Kd values of the last two molecules are within 1.5-fold of each other.

Molecule B41 showed a Kd of 2.9 nM.

B42 yielded a Kd of 2.6 nM. This Kd and that of the molecule before are within 1.5-fold of each other.

Regarding B43, the affinity, expressed as Kd, was 2.7 nM. As for B44, the figure is 2.8 nM. In turn, B45 gave a Kd of 5.7 nM. In turn, B46 came in with a Kd of 2.7 nM. As for B47, the figure is 3.3 nM; as for B48, 9.1 nM. With B49, the equilibrium dissociation constant (Kd) is 3 nM. Against the preceding molecule, the Kd is about 3-fold lower. B50 had an equilibrium dissociation constant (Kd) of 4.2 nM. This Kd and that of the molecule before are within 1.5-fold of each other. With B51, the Kd stood at 13 nM. Turning to B52, binding was characterised by a dissociation constant (Kd) of 12 nM. In turn, B53 yielded a dissociation constant (Kd) of 6.4 nM.

As for B54, the affinity, expressed as Kd, was 1.9 nM. Compared with the last molecule, the Kd is about 3.4-fold lower. B55 showed a Kd of 3.7 nM.
